# Reference: the supplement of paper PMC8728848
# This is one part of the list.
# B1: Factor H (Homo sapiens), P08603 (protein)
# chain: MRLLAKIICLMLWAICVAEDCNELPPRRNTEILTGSWSDQTYPEGTQAIYKCRPGYRSLGNVIMVCRKGEWVALNPLRKCQKRPCGHPGDTPFGTFTLTGGNVFEYGVKAVYTCNEGYQLLGEINYRECDTDGWTNDIPICEVVKCLPVTAPENGKIVSSAMEPDREYHFGQAVRFVCNSGYKIEGDEEMHCSDDGFWSKEKPKCVEISCKSPDVINGSPISQKIIYKENERFQYKCNMGYEYSERGDAVCTESGWRPLPSCEEKSCDNPYIPNGDYSPLRIKHRTGDEITYQCRNGFYPATRGNTAKCTSTGWIPAPRCTLKPCDYPDIKHGGLYHENMRRPYFPVAVGKYYSYYCDEHFETPSGSYWDHIHCTQDGWSPAVPCLRKCYFPYLENGYNQNYGRKFVQGKSIDVACHPGYALPKAQTTVTCMENGWSPTPRCIRVKTCSKSSIDIENGFISESQYTYALKEKAKYQCKLGYVTADGETSGSITCGKDGWSAQPTCIKSCDIPVFMNARTKNDFTWFKLNDTLDYECHDGYESNTGSTTGSIVCGYNGWSDLPICYERECELPKIDVHLVPDRKKDQYKVGEVLKFSCKPGFTIVGPNSVQCYHFGLSPDLPICKEQVQSCGPPPELLNGNVKEKTKEEYGHSEVVEYYCNPRFLMKGPNKIQCVDGEWTTLPVCIVEESTCGDIPELEHGWAQLSSPPYYYGDSVEFNCSESFTMIGHRSITCIHGVWTQLPQCVAIDKLKKCKSSNLIILEEHLKNKKEFDHNSNIRYRCRGKEGWIHTVCINGRWDPEVNCSMAQIQLCPPPPQIPNSHNMTTTLNYRDGEKVSVLCQENYLIQEGEEITCKDGRWQSIPLCVEKIPCSQPPQIEHGTINSSRSSQESYAHGTKLSYTCEGGFRISEENETTCYMGKWSSPPQCEGLPCKSPPEISHGVVAHMSDSYQYGEEVTYKCFEGFGIDGPAIAKCLGEKWSHPPSCIKTDCLSLPSFENAIPMGEKKDVYKAGEQVTYTCATYYKMDGASNVTCINSRWTGRPTCRDTSCVNPPTVQNAYIVSRQMSKYPSGERVRYQCRSPYEMFGDEEVMCLNGNWTEPPQCKDSTGKCGPPPPIDNGDITSFPLSVYAPASSVEYQCQNLYQLEGNKRITCRNGQWSEPPKCLHPCVISREIMENYNIALRWTAKQKLYSRTGESVEFVCKRGYRLSSRSHTLRTTCWDGKLEYPTCAKR
# Key:
# Assay in all cases: glycan array binding signal (z-score within array); higher = stronger binding
# Conditions in all cases: glycan notation: IUPAC condensed, linker removed
# [1] = target: GalNAc(b1-3)GalNAc
# In short: (§1)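 Columns mapping to the same glycan were averaged after glycan names were converted to IUPAC-condensed notation. The data come from 3228 arrays in the Consortium for Functional Glycomics database, limited to those with an available protein sequence. Binding is reported as a within-array Z-score averaged across arrays of one protein sequence and across linkers.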
# [2] = target: GalNAc(b1-4)GlcNAc
# In short: as §1
# [3] = target: Glc(a1-4)Glc
# In short: as §1
# [4] = target: Glc(a1-6)Glc(a1-6)Glc
# In short: as §1
# [5] = target: Glc(b1-4)Glc
# In short: as §1
# [6] = target: Glc(b1-6)Glc
# In short: as §1
# [7] = target: GlcA(b1-3)Gal
# In short: as §1
# [8] = target: GlcA(b1-3)GlcNAc
# In short: as §1
# [9] = target: GlcA(b1-6)Gal
# In short: as §1
# [10] = target: GlcNAc(a1-3)Gal(b1-4)GlcNAc
# In short: as §1
# [11] = target: GlcNAc(a1-6)Gal(b1-4)GlcNAc
# In short: as §1
# [12] = target: GlcNAc(b1-2)Gal(b1-3)GalNAc
# In short: as §1
# [13] = target: GlcNAc(b1-2)Man(a1-3)[GlcNAc(b1-2)Man(a1-6)]Man(b1-4)GlcNAc(b1-4)GlcNAc
# In short: as §1
# [14] = target: GlcNAc(b1-3)Gal
# In short: as §1
# [15] = target: GlcNAc(b1-3)Gal(b1-3)GalNAc
# In short: as §1
# [16] = target: GlcNAc(b1-3)Gal(b1-4)Glc
# In short: as §1
# [17] = target: GlcNAc(b1-3)Gal(b1-4)GlcNAc
# In short: as §1
# [18] = target: GlcNAc(b1-3)Gal(b1-4)GlcNAc(b1-3)Gal(b1-4)GlcNAc
# In short: as §1
# [19] = target: GlcNAc(b1-3)GalNAc
# In short: as §1
# [20] = target: GlcNAc(b1-3)Man
# In short: as §1
# [21] = target: GlcNAc(b1-3)[GlcNAc(b1-4)][GlcNAc(b1-6)]GlcNAc
# In short: as §1
# [22] = target: GlcNAc(b1-3)[GlcNAc(b1-6)]Gal(b1-4)GlcNAc
# In short: as §1
# [23] = target: GlcNAc(b1-3)[GlcNAc(b1-6)]GalNAc
# In short: as §1
# [24] = target: GlcNAc(b1-4)Gal(b1-4)GlcNAc
# In short: as §1
# [25] = target: GlcNAc(b1-4)GlcNAc
# In short: as §1
# [26] = target: GlcNAc(b1-4)GlcNAc(b1-4)GlcNAc
# In short: as §1
# [27] = target: GlcNAc(b1-4)GlcNAc(b1-4)GlcNAc(b1-4)GlcNAc(b1-4)GlcNAc
# In short: as §1
# [28] = target: GlcNAc(b1-4)GlcNAc(b1-4)GlcNAc(b1-4)GlcNAc(b1-4)GlcNAc(b1-4)GlcNAc
# In short: as §1
# [29] = target: GlcNAc(b1-4)[GlcNAc(b1-6)]GalNAc
# In short: as §1
# [30] = target: GlcNAc(b1-6)Gal(b1-4)GlcNAc
# In short: as §1
# [31] = target: GlcNAc(b1-6)GalNAc
# In short: as §1
# [32] = target: GlcNAc3Prop(b1-4)GlcNAc
# In short: as §1
# [33] = target: Kdn(a2-3)Gal(b1-3)GlcNAc
# In short: as §1
# [34] = target: Kdn(a2-3)Gal(b1-4)GlcNAc
# In short: as §1
# [35] = target: Man(a1-2)Man(a1-2)Man(a1-3)Man
# In short: as §1
# [36] = target: Man(a1-2)Man(a1-2)Man(a1-6)[Man(a1-3)]Man
# In short: as §1
# [37] = target: Man(a1-2)Man(a1-3)Man
# In short: as §1
# [38] = target: Man(a1-2)Man(a1-3)[Man(a1-2)Man(a1-6)]Man
# In short: as §1
# [39] = target: Man(a1-2)Man(a1-3)[Man(a1-2)Man(a1-6)]Man(a1-6)[Man(a1-2)Man(a1-2)Man(a1-3)]Man
# In short: as §1
# [40] = target: Man(a1-2)Man(a1-3)[Man(a1-2)Man(a1-6)]Man(a1-6)[Man(a1-2)Man(a1-2)Man(a1-3)]Man(b1-4)GlcNAc(b1-4)GlcNAc
# In short: as §1
# [41] = target: Man(a1-2)Man(a1-3)[Man(a1-6)]Man(a1-6)[Man(a1-2)Man(a1-3)]Man(b1-4)GlcNAc(b1-4)GlcNAc
# In short: as §1
# [42] = target: Man(a1-2)Man(a1-6)[Man(a1-3)]Man(a1-6)[Man(a1-2)Man(a1-2)Man(a1-3)]Man
# In short: as §1
# [43] = target: Man(a1-2)Man(a1-6)[Man(a1-3)]Man(a1-6)[Man(a1-2)Man(a1-2)Man(a1-3)]Man(b1-4)GlcNAc(b1-4)GlcNAc
# In short: as §1
# [44] = target: Man(a1-3)[Man(a1-6)]Man
# In short: as §1
# [45] = target: Man(a1-3)[Man(a1-6)]Man(a1-6)[Man(a1-2)Man(a1-3)]Man(b1-4)GlcNAc(b1-4)GlcNAc
# In short: as §1
binder,measurement,setting,value
B1,glycan array binding signal (z-score),[1],0.345
same,glycan array binding signal (z-score),[2],-0.186
same,glycan array binding signal (z-score),[3],-0.343
same,glycan array binding signal (z-score),[4],0.357
same,glycan array binding signal (z-score),[5],-0.507
same,glycan array binding signal (z-score),[6],1.55
same,glycan array binding signal (z-score),[7],-0.108
same,glycan array binding signal (z-score),[8],-0.298
same,glycan array binding signal (z-score),[9],-0.147
same,glycan array binding signal (z-score),[10],-0.015
same,glycan array binding signal (z-score),[11],-0.172
same,glycan array binding signal (z-score),[12],0.157
same,glycan array binding signal (z-score),[13],-0.458
same,glycan array binding signal (z-score),[14],-0.286
same,glycan array binding signal (z-score),[15],-0.157
same,glycan array binding signal (z-score),[16],-0.643
same,glycan array binding signal (z-score),[17],-0.094
same,glycan array binding signal (z-score),[18],-0.383
same,glycan array binding signal (z-score),[19],0.52
same,glycan array binding signal (z-score),[20],2.51
same,glycan array binding signal (z-score),[21],0.377
same,glycan array binding signal (z-score),[22],-0.549
same,glycan array binding signal (z-score),[23],1
same,glycan array binding signal (z-score),[24],0.172
same,glycan array binding signal (z-score),[25],-0.122
same,glycan array binding signal (z-score),[26],-0.479
same,glycan array binding signal (z-score),[27],-0.497
same,glycan array binding signal (z-score),[28],-0.101
same,glycan array binding signal (z-score),[29],1.2
same,glycan array binding signal (z-score),[30],-0.593
same,glycan array binding signal (z-score),[31],0.076
same,glycan array binding signal (z-score),[32],-0.617
same,glycan array binding signal (z-score),[33],1.99
same,glycan array binding signal (z-score),[34],-0.5
same,glycan array binding signal (z-score),[35],-0.099
same,glycan array binding signal (z-score),[36],-0.034
same,glycan array binding signal (z-score),[37],-0.002
same,glycan array binding signal (z-score),[38],0.253
same,glycan array binding signal (z-score),[39],-0.497
same,glycan array binding signal (z-score),[40],-0.18
same,glycan array binding signal (z-score),[41],-0.264
same,glycan array binding signal (z-score),[42],-0.682
same,glycan array binding signal (z-score),[43],-0.199
same,glycan array binding signal (z-score),[44],0.006
same,glycan array binding signal (z-score),[45],-0.106
